# Data as given in PMC4336329 (PLoS ONE, 2015).
# About 2,200 (0.71%) of roughly 310,000 compounds showed an effect of 50% or more. Effects have a minus sign here. The list shows a part of the results.
# Target: human ether-à-go-go-related gene (hERG) potassium channel (human, UniProt Q12809)
# Experiment: primary screen, population patch clamp on CHO cells stably expressing hERG
# human ether-à-go-go-related gene (hERG) potassium channel, sequence (Q12809 whole entry, looked up): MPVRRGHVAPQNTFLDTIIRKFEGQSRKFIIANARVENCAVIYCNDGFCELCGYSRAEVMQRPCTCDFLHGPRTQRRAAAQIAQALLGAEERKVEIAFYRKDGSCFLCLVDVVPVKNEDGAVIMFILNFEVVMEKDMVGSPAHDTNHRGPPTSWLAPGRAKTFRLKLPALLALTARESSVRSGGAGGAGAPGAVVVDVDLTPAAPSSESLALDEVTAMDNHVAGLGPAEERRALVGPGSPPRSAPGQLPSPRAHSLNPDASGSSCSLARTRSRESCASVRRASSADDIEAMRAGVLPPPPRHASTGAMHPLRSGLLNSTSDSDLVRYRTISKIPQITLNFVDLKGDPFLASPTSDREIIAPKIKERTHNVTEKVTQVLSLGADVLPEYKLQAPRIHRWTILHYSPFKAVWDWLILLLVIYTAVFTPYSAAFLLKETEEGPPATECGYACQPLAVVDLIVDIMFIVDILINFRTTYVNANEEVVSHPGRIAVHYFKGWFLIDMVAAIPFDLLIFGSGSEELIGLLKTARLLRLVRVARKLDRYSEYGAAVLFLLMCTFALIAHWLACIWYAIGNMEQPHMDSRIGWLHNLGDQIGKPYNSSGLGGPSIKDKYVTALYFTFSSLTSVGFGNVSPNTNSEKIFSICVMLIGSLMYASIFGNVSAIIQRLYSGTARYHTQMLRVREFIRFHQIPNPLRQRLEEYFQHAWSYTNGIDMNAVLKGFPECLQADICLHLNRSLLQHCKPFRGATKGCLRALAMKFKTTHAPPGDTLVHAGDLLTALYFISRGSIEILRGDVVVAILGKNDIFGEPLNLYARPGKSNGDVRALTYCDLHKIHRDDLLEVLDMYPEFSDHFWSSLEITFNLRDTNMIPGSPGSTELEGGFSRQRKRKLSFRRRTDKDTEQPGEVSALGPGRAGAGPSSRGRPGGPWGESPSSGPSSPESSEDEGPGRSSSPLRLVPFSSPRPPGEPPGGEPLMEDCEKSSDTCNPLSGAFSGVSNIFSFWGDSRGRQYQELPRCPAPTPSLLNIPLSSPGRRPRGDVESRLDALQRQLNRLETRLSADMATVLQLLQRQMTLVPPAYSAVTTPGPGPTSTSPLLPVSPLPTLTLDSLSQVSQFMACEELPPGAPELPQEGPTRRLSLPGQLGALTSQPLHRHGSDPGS
row,SMILES,"hERG current change (%, negative = inhibition) at 1uM [%]"
1,O=C(Cn1nnc(-c2ccccc2F)n1)NCCc1ccccc1,8.4
2,COc1cc(NC(=O)CN(C)C2CCCCC2)c(C)cc1[N+](=O)[O-],6.09
3,CCc1nc(SCC(=O)Nc2ccccc2C(=O)OC)n[nH]1,9.59
4,CCOC(=O)c1c(C)[nH]c(C(=O)CN2C(=O)NC(C)(c3ccc(C)cc3)C2=O)c1C (stereo not shown),13.6
5,CCOc1ccc(N(CC(=O)Nc2c(C)n(C)n(-c3ccccc3)c2=O)S(=O)(=O)c2ccc(F)cc2)cc1,-8.79
6,COc1cc(C(=O)NCc2nnc(SCC(=O)NC3CCCCC3)o2)cc(OC)c1OC,14.8
7,Cc1ccc2c(c1)N(CC(=O)N1CCCC1)C(=O)C(C)O2 (stereo not shown),22.1
8,COc1ccc(-c2oc3ccccc3c2C(=O)Oc2ccccc2)cc1,15.4
9,O=C(O)CNC(=O)c1ccc(NS(=O)(=O)c2ccc3ccccc3c2)cc1,13.2
10,CCOC(=O)c1c(C)[nH]c(C)c1C(=O)COC(=O)[C@@H]1CCCN1S(=O)(=O)c1ccc(Cl)cc1,9.05
11,CCOc1ccc(N(CC(=O)Nc2ccccc2C(=O)NC(C)CC)S(C)(=O)=O)cc1 (stereo not shown),8.87
12,CC(C)COP(=O)(c1ccc(N(C)C)cc1)C(O)c1ccncc1 (stereo not shown),-4.05
13,COc1ccc(N(CC(=O)NCc2ccc(C)cc2)S(=O)(=O)c2c(C)nn(C)c2C)cc1,0.192
14,CCOC(=O)Cn1nc(/C=C/c2ccc(OC)cc2)ccc1=O,-0.87
15,COCc1ccc2oc(C(=O)O)cc2c1,5.25
16,COc1ccc([C@H]2CC(=O)C=C(c3ccc(OC)cc3OC)C2)cc1,15.3
17,Cn1c(=O)c(=O)n(C)c2cc(N3CCCCC3)c(NS(=O)(=O)c3ccc([N+](=O)[O-])cc3)cc21,-0.114
18,CN(C(=O)COC(=O)c1cccc(NS(=O)(=O)c2ccc(F)c(F)c2)c1)C1CCS(=O)(=O)C1 (stereo not shown),4.54
19,C=CCNC(=S)NNC(=O)c1cc(C)nc2ccccc12,12.8
20,COc1ccc(C(=O)N/C(=C\c2cccc3ccccc23)C(=O)N2CCN(C)CC2)cc1OC,-6.21
21,O=C1c2c([N+](=O)[O-])cc([N+](=O)[O-])cc2S(=O)N1Cc1ccccc1 (stereo not shown),18.4
22,COc1ccc(S(=O)(=O)Nc2cccc(-c3ccc4nncn4n3)c2)cc1,14

row,SMILES,"hERG current change (%, negative = inhibition) at 1uM [%]"
1,CN1C(=O)C(O)(CC(=O)/C=C/c2ccco2)c2ccccc21 (stereo not shown),1.74
2,O=C1NC(=S)N(C2CC2)C(=O)/C1=C/c1ccc2c(c1)CCN2CCCCl,5.03
3,COc1ccccc1OCCSc1nc2ccccc2n1CC(O)CO (stereo not shown),9.57
4,CC(=O)Nc1ccc(S(=O)(=O)N2CCC(C(=O)c3ccc(F)cc3)CC2)cc1,-2.12
5,Cc1ccc(NC(=O)Nc2cccs2)nc1,11.6
6,O=C(/C=C\N1CCOCC1)c1ccc(Br)cc1,7.88
7,Cc1ccc(C(=O)NCCNC(=O)COc2ccc(Cl)cc2)cn1,12
8,CC1CCCCN1C(=O)CCS(=O)(=O)c1cccc2nonc12 (stereo not shown),9.42
9,Nc1nc2ccccc2n1/N=C/c1ccc2c(c1)OCO2,36.2
10,S=C(c1ccccc1)N(c1ccccc1)c1ccccc1,10.9
11,O=[N+]([O-])c1ccccc1NCc1ccc(Cl)cc1,-12.9
12,O=C(O)c1ccc(N2CC3CC(C2)c2cccc(=O)n2C3)c(NS(=O)(=O)c2cccc(C(F)(F)F)c2)c1 (stereo not shown),10.4
13,CC(C)C(c1nnnn1CC1CCCO1)N1CCN(C2CCCC2)CC1.Cl (stereo not shown),9.21
14,COc1ccc(CNC(=O)CCNC(=O)N2CCn3c2nc2ccccc23)cc1,2.17
15,Cc1ccc(CN2CC(C(=O)N(Cc3nnc(-c4ccccc4Cl)o3)C3CC3)CC2=O)cc1 (stereo not shown),2.14
16,COc1cc(/C=C/C(=O)O)cc(S(=O)(=O)Nc2cc(Cl)c(Cl)cc2Cl)c1OC,12.9
17,Cn1c(C(=O)N2CCN(Cc3ccc4c(c3)OCO4)CC2)cc2c(=O)n(C)c3ccccc3c21,9.24
18,CSc1ccccc1NC(=O)CN(c1ccccc1)S(=O)(=O)N(C)C,3.51
19,Cc1ccc2[nH]cc(S(=O)(=O)c3ccc(C)c(C)c3)c(=O)c2c1,19.9
20,COc1ccc(OCC(=O)O/N=C(\N)c2ccc(OC)cc2)cc1,7.07
21,C/C(=N/NC(=O)c1ccc(Br)s1)c1ccncc1,7.18
22,COCCCNc1nc2nonc2nc1NCCSC,2.32

row,SMILES,"hERG current change (%, negative = inhibition) at 1uM [%]"
1,CS(=O)(=O)c1ccc(C(=O)Nc2ccc(N3CCCC3)cc2)c(Cl)c1,21.4
2,O=C(Oc1ccccc1)c1ccc2c(c1)C(=O)N(Cc1ccncc1)C2=O,2.13
3,Cc1nn(CC(=O)N2CCN(c3cccc(C(F)(F)F)c3)CC2)c(=O)c2cccn12,-1.82
4,COc1cccc(C(=O)NCC2(c3ccccc3)CCCC2)c1OC,9.34
5,Cc1cccc(C)c1Nc1nnc(SCC(=O)Nc2cc(S(=O)(=O)N3CCCCC3)ccc2Cl)s1,13.8
6,O=C(NN1CCOCC1)c1ccc(Br)s1,5.3
7,COc1ccc(/C=N/NC(=O)c2ccc(CN3c4cccc5cccc(c45)S3(=O)=O)cc2)cc1,3.65
8,O=C(CCc1ccccn1)N1CCCC(CNS(=O)(=O)c2cccs2)C1 (stereo not shown),16.4
9,OC1(c2ccc3c(c2)OCO3)CCN(Cc2ccccn2)CC1,7.76
10,Cc1ccccc1S(=O)(=O)Cc1ccc(C(=O)N2CCN(c3ncccn3)CC2)o1,3.93
11,CC(=O)Nc1ccc(NC(=O)CSc2nccn2Cc2ccccc2)cc1,10.5
12,COc1ccc(N2C(=O)N3[C@H](c4ccc(Br)cc4)[C@@H]4C(=O)N(C(C)(C)C)C(=O)[C@@H]4[C@]3(Cc3ccccc3)C2=O)cc1,4.5
13,COC(=O)CSc1nnc(CNC(=O)Cc2ccccc2)n1-c1ccccc1OC,1.77
14,O=C(CSc1nnc(-c2c[nH]c3ccccc23)o1)N1c2ccccc2CCc2ccccc21,19.7
15,Cc1cc(=O)oc2c1ccc1oc(/C(=N/O)c3ccccc3)c(C)c12,12.3
16,O=C(N/N=C/c1cccc(OCC(=O)N2CCCC2)c1)C(=O)Nc1ccccc1F,-8.52
17,CC(C)(C)C(=O)N(Cc1ccc(Cl)cc1)c1cnccn1,7.39
18,COCC(C)N=C1SCCN1Cc1ccccc1 (stereo not shown),19
19,Cc1cccc(NCC(=O)NNC(=S)Nc2ccccc2)c1,13
20,O=C(NC(=S)N1CCCc2ccccc21)c1ccc(Br)cc1,12.7
21,Nn1c(SCC(=O)NC2CCCCC2)nnc1-c1ccc(Cl)cc1,9.07
22,CC[N+](CC)(CC#CCO)CC#Cc1ccccc1.[Br-],23.4

row,SMILES,"hERG current change (%, negative = inhibition) at 1uM [%]"
1,Cc1noc(NS(=O)(=O)c2ccc(N3CC(O)=C(c4ccccc4)C3=N)cc2)c1C,19.3
2,CNc1c(NS(=O)(=O)c2ccc(C3CCCCC3)cc2)c(=O)oc2ccccc12,13.3
3,COc1cccc(C2c3[nH]c4ccccc4c3C[C@H]3C(=O)N(CCCOC(C)C)CC(=O)N23)c1 (stereo partly shown),17.2
4,COc1cc2c(cc1OC)C(c1cc(OC)c(OC)cc1[N+](=O)[O-])N(C(C)=O)CC2 (stereo not shown),10.4
5,NNC(=O)c1cccc(COc2cccc(Br)c2)c1,2.35
6,O=C(Nc1ccc2c(c1)OCO2)C1CCCN1C(=O)Nc1ccccc1 (stereo not shown),12.7
7,COc1ccc(NC(=O)C2Cc3ccccc3CN2C(=O)c2ccco2)cc1 (stereo not shown),12.9
8,CC(C(=O)c1c[nH]c2ccccc12)N1CCSCC1 (stereo not shown),-1.5
9,CCOc1cc(C2Nc3cccc4cccc(c34)N2)ccc1O,8.31
10,CCCn1nc(C(=O)Nc2nc3ccccc3[nH]2)c2ccccc2c1=O,-7.23
11,CCN(CC)S(=O)(=O)c1ccc(N2CCCC2)c(NC(=O)Cc2ccc(OC)cc2)c1,8.62
12,O=C1NC2(CCCCC2)C(=O)N1c1cccc(Cl)c1,16
13,Cc1[nH]c(=O)[nH]c(=O)c1S(=O)(=O)Nc1ccc(Cl)c([N+](=O)[O-])c1,9.99
14,CNC(=O)C1CC(=O)N(CCc2ccc(OC)cc2)C(=Nc2ccc(OC)cc2)S1 (stereo not shown),7.43
15,COc1ccc(-c2cc(-c3cccs3)c(C#N)c(SCC(=O)NCc3ccco3)n2)cc1,7.86
16,Cc1ccc2oc3nc(C)c(C(=O)O)cc3c(=O)c2c1,4.27
17,Cc1c(-c2ccccc2)oc2c(C(=O)N3CCN(c4ccccc4F)CC3)cccc2c1=O,3.43
18,COc1ccc(CNC(=O)COC(=O)c2c[nH]c(=O)[nH]c2=O)cc1OC,6.32
19,CCc1c(C)nn(C(=O)/C(C#N)=C\N(C)C)c1C,0.484
